# According to PubChem BioAssay AID686978 (National Center for Advancing Translational Sciences (NCATS), 2013):
# About 64,000 (15%) of roughly 420,000 compounds were called active. The inconclusive results got no clear call from the source; some entries with a clear call stand among them for comparison. The call rests on the fitted dose curve; in most records, active means well fitted inhibition curve with a large enough effect; inconclusive means small, poorly fitted or top-dose-only effect; inactive means flat fitted curve, though single readings scatter. Potencies of inconclusive entries are left out as doubtful fits.
# Assay: qHTS for Inhibitors of human tyrosyl-DNA phosphodiesterase 1 (TDP1): qHTS in cells in absence of CPT; further: nearly all actives have a fitted effect of over 55% in size
# Conditions: DT40 Tdp1-/- hTDP1 cells, no CPT, ATP luminescence, 48 h; activity change, negative = growth inhibition: at 46.2 µM (top of the series) unless noted
# From the text: Human tyrosyl-DNA phosphodiesterase 1 (TDP1) is a novel repair gene, and we propose to use it as a new target for anticancer drug development. TDP1 is not an essential protein, but under treatment with topoisomerase I poison (camptothecin: CPT), TDP1 works as a critical factor for cell survival. To directly identify novel TDP1 inhibitors active in a cellular environment, we have knocked-out the Tdp1 gene in chicken DT40 cells (Tdp1-/-) and generated a complemented counterpart cells that contains a stable transfection of the human TDP1 gene (Tdp1-/-;hTDP1 cells). For the primary screen, Tdp1-/-;hTDP1 cells will be exposed to small molecules in the presence or absence of CPT, and their growth kinetics will be evaluated after 48 hours by measuring ATP activity. […] The hit compounds will then be evaluated in the presence or absence of CPT using Tdp1-/- cells. […] In tertiary assays, biochemical gel-based assays will be used to assess whether the hit compounds specifically target TDP1.
# To this end, we have screened this cell line against the MLSMR in two primary screens. In one screen we add CPT and in the other we screen in the absence of CPT; this AID represents the screen where CPT was absent.
# NIH Chemical Genomics Center [NCGC]
# NIH Molecular Libraries Probe Centers Network [MLPCN]
# Assay Submitter (PI): Yves Pommier, NCI
# DT40-hTDP1 cells without 20 nM Camptothecin (add 20 microL of DMSO in 1 L of cell culture medium) were dispensed at 400 cells/5microL/well in tissue culture treated 1536-well white wall/solid bottom assay plates (Greiner Bio-One North America, NC, U.S.A.) using a Multidrop Combi 8 channel dispenser (Thermo Fisher, Waltham, MA, USA). 23 nL compounds and controls were transferred using the pin tool (Kalypsys, San Diego, CA, USA) to the assay plates. The assay plates were then incubated at 37 masculineC for a minimum 48 hr. Three microL of Cell Titer Glo solution was added to the plates and incubated at RT in dark for 30 min. Luminescence was read using ViewLux (Perkin Elmer) with 1 sec exposure slow speed, high gain and 2x binning.
# On the % scale 0 is the no-effect control and ±100 the full control effect; potency means the concentration at half of the fitted maximal effect; tags describe the fitted curve by direction and shape.
SMILES,Potency,"activity change, negative = growth inhibition"
CC(=NCCN1CCNCC1)C1=C(O)CC(C)(C)CC1=O,"inconclusive [inhibitor, partial curve]",
Cc1ccccc1OCCC(=O)N1CCN(S(=O)(=O)c2ccc(F)cc2)CC1,"inconclusive [inhibitor, single point]",
COc1ccc(COCC(O)CN2CCC(C(N)=O)CC2)cc1 (configuration not stated),,inactive: -4.64%
C[C@@H]1CN([C@H](C)CO)S(=O)(=O)c2ccc(-c3cccc(C#N)c3)cc2O[C@H]1CN(C)C(=O)Nc1cc(F)ccc1F,"inconclusive [inhibitor, single point]",
CC1CCc2[nH]c3ccc(C(=O)N(C)CC(=O)Nc4ccccc4Cl)cc3c2C1 (configuration not stated),active: 14.6 µM,
Cc1noc(C)c1S(=O)(=O)N1CCCC(C(=O)c2cccc(OC(C)C)c2)C1 (configuration not stated),"inconclusive [inhibitor, single point]",
CN(C(=O)COC(=O)c1n[nH]c2ccccc12)c1ccccc1,,inactive: 11.2%
COc1ccc(Br)cc1CN1CCCCCC1,,inactive: -14.3%
O=C(Nc1ccc(Cl)c(S(=O)(=O)N2CCCCC2)c1)c1cccnc1,"inconclusive [inhibitor, single point]",
Cc1ccc(CSc2nnc(-c3ccncc3)o2)c(C)c1,"inconclusive [inhibitor, single point]",
COc1ccc(NC(=O)CSc2ccc(-c3ccco3)nn2)cc1,,inconclusive: -32.1% [inhibitor]
Cc1ccc(S(=O)(=O)N/N=C/c2ccc(O)cc2O)cc1[N+](=O)[O-],,inactive: -14.4%
CCOc1ncccc1C(=O)N1CCN(C(c2ccccc2)c2ccccc2)CC1,active: 13 µM,
O=C(Oc1ccc(Br)cc1C(=S)N1CCCCC1)c1cc([N+](=O)[O-])cc([N+](=O)[O-])c1,"inconclusive [inhibitor, partial curve]",
Cc1nn(C)c(C)c1/C=C/C(=O)c1ccc(Cl)cc1Cl,active: 13 µM,
Cc1oc(-c2ccccc2NC(=O)c2ccccn2)nc1CNC(=O)c1cccc(C#CC(C)(C)O)c1,"inconclusive [inhibitor, single point]",
CCOc1cccc(-c2c(C(=O)N/N=C/c3ccc(C)o3)nnn2-c2nonc2N)c1,,inactive: 11.3%
CCC(C)(C)n1nnnc1C(C(C)C)N1CCN(C)CC1 (configuration not stated),,inactive: -2.98%
COc1ccc(CNC(=O)CSc2ncc3c(n2)-c2ccc(Cl)cc2N(Cc2ccccc2)S3(=O)=O)cc1,"inconclusive [inhibitor, partial curve]",
Cc1cc(Cl)ccc1OCC(=O)N(Cc1ccco1)Cc1ccccc1F,active: 16.4 µM,
CC(=O)Nc1ccc(-c2csc(NC(=O)Cc3ccccc3F)n2)cc1,"inconclusive [inhibitor, partial curve, poor fit]",
CCN(C[C@H]1N[C@@](Cc2ccccc2)(C(=O)OC)[C@H]2C(=O)N(C)C(=O)[C@@H]12)C(=O)Nc1ccc(C(F)(F)F)cc1,"inconclusive [inhibitor, partial curve]",
CN(C)CCNC(=O)Cn1ccc2cc(S(=O)(=O)N3CCCCCC3)ccc21,"inconclusive [inhibitor, single point]",

SMILES,Potency,"activity change, negative = growth inhibition"
CC(C)OCCCn1c(=O)c2ccccc2n2c(-c3ccccc3)nnc12,"inconclusive [inhibitor, single point]",
CCN(CCCNC(=O)CN(C)S(=O)(=O)c1cccc2nsnc12)c1cccc(C)c1,"inconclusive [inhibitor, single point]",
CCCCCCn1cc(C(=O)O)c(=O)c2cc(F)c(N3CCN(C)CC3)cc21,active: 18.4 µM,
CCCCOc1ccc(NC(=O)CSc2cccc3cccnc23)cc1,"inconclusive [inhibitor, single point]",
Cc1ccc(-c2cc(C(=O)N3CCN(S(=O)(=O)c4ccc(Br)cc4)CC3)[nH]n2)c(C)c1,"inconclusive [inhibitor, single point]",
Cc1ccc(NS(=O)(=O)c2cccc(C(=O)NNC(=O)NC3CCCCC3)c2)c(C)c1,"inconclusive [inhibitor, single point]",
NS(=O)(=O)c1ccc2nc(NC(=O)c3ccc4c(c3)OCCO4)sc2c1,,inactive: 16.2%
CC(=O)c1ccc(NC(=O)C2CCN(c3nnc(C)c4c(C)n(-c5ccccc5)nc34)CC2)cc1,active: 20.6 µM,
Cc1ccnc(NC(=O)c2ccccc2NC(=O)c2ccc(Cl)cc2Cl)c1,active: 1.84 µM,
COc1ccc(S(=O)(=O)N2CCOC2CNC(=O)C(=O)NCc2ccc(F)cc2)cc1OC (configuration not stated),"inconclusive [inhibitor, partial curve]",
Cc1cccc(N=Cc2ccccc2O)c1C,"inconclusive [inhibitor, single point]",
CCOC(=O)C1(CCCc2ccccc2)CCN(C(=O)CCN2CCCCC2=O)CC1,active: 16.4 µM,
CC(CNC(=O)CCn1ccc2cc(S(=O)(=O)N3CCCC3)ccc21)c1ccccc1 (configuration not stated),,inactive: -25.1%
COC(=O)c1ccc(CNC(=O)C(Cc2ccccc2)NC(=O)c2ccccc2)cc1 (configuration not stated),"inconclusive [inhibitor, single point]",
O=C1CC(N2CCN(c3ccc(F)cc3)CC2)C(=O)N1Cc1ccc(N2CCCC2=O)cc1 (configuration not stated),"inconclusive [inhibitor, partial curve]",
COc1ccc(S(=O)(=O)N2CCOCC2)cc1NC(=O)c1ccc(S(=O)(=O)N2CCCCC2)cc1,"inconclusive [inhibitor, partial curve]",
CCc1ccccc1NC(=O)CN(C)C(=O)COC(=O)c1c(Cl)cccc1Cl,"inconclusive [inhibitor, single point]",
O=C1c2ccccc2N2C(=O)c3ccccc3C2N1Cc1ccccc1 (configuration not stated),"inconclusive [inhibitor, partial curve, poor fit]",
COc1ccc(C(=O)c2[nH]c(N)c(C(=O)NCCc3c[nH]c4ccccc34)c2-c2ccccc2Br)cc1,"inconclusive [inhibitor, single point]",
Clc1nc(-c2n[nH]nc2Cl)n[nH]1,,inactive: -3.31%
COC(=O)c1scc(C)c1S(=O)(=O)Nc1ccc(C)cc1,"inconclusive [inhibitor, single point]",
CCCCN1C=CC(=C2C(=O)c3ccccc3C2=O)C=C1,"inconclusive [inhibitor, partial curve]",
Cc1ccc(-n2nnnc2SCC(=O)Nc2cccnc2Cl)cc1,"inconclusive [inhibitor, partial curve]",

SMILES,Potency,"activity change, negative = growth inhibition"
O=C(Nc1ccccc1)N1CCC(=S)Nc2ccccc21,,inactive: -1.57%
O=C(COc1cccc(Oc2ccccc2)c1)Nc1ncccn1,"inconclusive [inhibitor, full curve, poor fit]",
CN(C)CCCN1C(=O)c2cccc3cccc(c23)C1=O,"inconclusive [inhibitor, single point]",
COC(=O)Nc1ccc(S(=O)(=O)N2CCCC(C(=O)O)C2)cc1 (configuration not stated),,inactive: -6.35%
Cc1ccccc1-n1nc2c(c1NC(=O)CCCl)CSC2,"inconclusive [inhibitor, single point]",
CCOc1ccc(NC(=O)CN2C(=O)CSc3ccc(S(=O)(=O)N4CCCC4)cc32)cc1,"inconclusive [inhibitor, partial curve]",
CCn1ncc(CNC(=O)CCSc2nc(-c3ccco3)cc(C(F)(F)F)n2)c1C,"inconclusive [inhibitor, partial curve]",
O=C(Cc1cccs1)NCc1cccc(F)c1,,inactive: -21.1%
Cc1ccc(S(=O)(=O)c2cn(Cc3ccccc3)c3cc(N4CCCCC4)c(F)cc3c2=O)cc1,active: 16.4 µM,
Cc1[nH]c2ccccc2c1C(=O)COC(=O)c1cccc(S(=O)(=O)N2CCCCC2)c1,"inconclusive [inhibitor, single point]",
Cc1ccc(O)c(NC(=O)c2noc(C(C)C)c2[N+](=O)[O-])c1,"inconclusive [inhibitor, single point]",
CC(C)c1nc2oc3c(N(C)CCO)ncnc3c2c2c1CCC2,"inconclusive [inhibitor, single point]",
Cc1nc(C(=O)N/N=C/c2[nH]ncc2Br)cs1,"inconclusive [inhibitor, single point]",
CN(CCc1ccccc1)C(=O)c1cccc(NC(=O)Cc2cccc(NC(=O)C3CCN(C(=O)c4ccccc4)CC3)c2)c1,"inconclusive [inhibitor, single point]",
COc1cccc(/C=N/NC(=O)CCc2n[nH]c(=O)[nH]c2=O)c1O,"inconclusive [inhibitor, single point]",
O=C(CC(=O)N/N=C\c1ccc([N+](=O)[O-])cc1)NCCc1ccccc1,,inactive: -1.63%
COc1ccc(-c2noc(-c3ccc(N4CCOCC4)c([N+](=O)[O-])c3)n2)cc1,,inactive: -0.727%
Cc1ccc(N2C(N)=C(C#N)C(c3cccnc3)C3=C2CC(C)(C)CC3=O)cc1 (configuration not stated),"inconclusive [inhibitor, single point]",
O=C1NC(=S)NC1=Cc1ccc2c(c1)CCC2,"inconclusive [inhibitor, partial curve]",
Cc1cc(Cl)ccc1OCC(=O)Nn1c(C)ccc1C,"inconclusive [inhibitor, partial curve]",
CCOC(=O)c1c(C)sc(-c2c(-c3ccccc3)[nH]c3[nH]c(=O)[nH]c(=O)c23)c1O,,inactive: -15.4%
